# Measurements from the supplement of paper PMC11417369.
# This is one part of the list.
# System: PF3D7_0420300 AP2 domain 1 (GST-tagged)
# Assay: gcPBM binding intensity (ln(normalized median fluorescence intensity)); higher = stronger DNA binding
# How it was run: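 Plasmodium falciparum DNA-binding domains carrying a GST tag were expressed in E. coli and applied for 1 h, at about 25 μg on average, to an Agilent 4 × 180k array. The array held primer-extended double-stranded 36-bp intergenic genomic probes together with negative controls, and binding took place in 1× PBS with 1% milk, 0.2 mg/ml BSA, 0.5% salmon testes DNA and 0.03% Triton X-100. An Alexa488 anti-GST antibody detected bound protein, and the array was scanned at 488 nm. Binding intensity is taken as the highest Masliner-normalised natural-log median intensity across replicate spots of either probe orientation.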
row,Sequence,gcPBM binding intensity (ln)
1,TTTTTGTCTGCATACGCACACACGTGGACCATCTTA [CACACA_site8303],9.6
2,AAAGAAAGAAAACACACACACATATATATATATCAA [CACACA_site3743],10.1
3,TATATATATATATGTACACACACACCGATAAATAAA [CACACA_site8041],9.99
4,TACCACTTTCGAAGTAGTACATGGCTTTTTTTTTTT [XGTACX_site8379],9.46
5,TGTATGTTAAATACAACACACAAAAAAAAACAAGTT [CACACA_site4324],9.65
6,ATATATATATGTGTGTGTACATATGATTTCGCACTT [XGTACX_site4449],9.8
7,TATACAGATAAATACACACACATATATATATATATA [CACACA_site4178],9.52
8,GTTATAATTTAGTCAAGTACATGCGTATGTATATTC [XGTACX_site3763],9.23
9,CACAGAAATATTCTTATACACACTGTTCTTATATTC [CACACA_site288],9.45
10,TAATATATATTATATACACACATATATATATATATA [CACACA_site428],9.38
11,TTTTACGTGAGTAATACACACATATAAGTTTATATA [CACACA_site4120],9.09
12,TATAACTTTTTTAATACACACAAATATTTATTTATA [CACACA_site7425],9.22
13,GGCATACACGAACACACACACACACGCACATATATA [CACACA_site6426],10.3
14,TTACATGTAAAAGGTACACACATTAGATATACAAAT [CACACA_site6651],9.71
15,AATACTCAAAAGAATCGTACAAACAACACTCCCACG [XGTACX_site7564],9.4
16,TATCATACCTTTTAATGTACACACATTTCTTTTTTG [XGTACX_site1655],9.75
17,TATAAATTAAAATCAGTGCATATTTTGAAAAACCTC,9.27
18,TGAAATAACCCATGTGCATGCACTTCAATAACTGAA [TGCATGCA_site1041],9.26
19,ATATTATTATTAGTTTCACACATTTAATGAAACTAA [CACACA_site5677],9.03

row,Sequence,gcPBM binding intensity (ln)
1,TATAAATTATAAATTGCACACATATTTTTATATTTA [CACACA_site8974],9.32
2,ATTACCATATAAAACACACAAACATACATACATACA [CACACA_site3729],9.64
3,TATATATATATATATTGTACATATTAATATTAGAAA [XGTACX_site8923],9.1
4,TGGAGGTCAGTTCACAGTACCCAGAAACTCTACGAG [XGTACX_site2007],8.76
5,AATGACATTCTTACACGTACAAAATAAAAAATAAAA [XGTACX_site6932],9.2
6,TATATATTATATTCATGTACGTAAAAATTTTGAATA [XGTACX_site6734],9.09
7,ATTTATTTTATAATATATAAATGATATATCTTATTA [CACACA_negctrl_site66],8.99
8,CCATATGATATATATTGTACATTATATATTATTTCT [XGTACX_site1697],9.37
9,TATGTTGTTTATTTAGTGCATATTTAAATATTATAA [GTGCAC_site9601],9.33
10,TAATATATAAAAAGATGTACTTTTGCAAGTTCCTTT [XGTACX_site8519],9
11,GGACTTTATAAAAATGGTACACGCAATTCTATAATC [XGTACX_site6515],9.18
12,ATATATATATATGTATGTACGTATGTATGTATGAAT [XGTACX_site4857],9.55
13,GGTACATACAAACACACACACAAAAAAAAAAAAATA [CACACA_site1577],9.91
14,TATTGTATAAAAATAACATGCAATCCTTATACTGCT [TGCATGCA_site345],9.16
15,TGTACAGTAAATACAACACACATTTGTATAAATATA [CACACA_site4705],9.59
16,TCTAATTTAAAATACACACACATATCTATAATATAT [CACACA_site7029],9.72
17,GTATAAAAATTTAGGAGTACAATATATTTATAATAT [XGTACX_site2127],9.27
18,GTAATAAAAAATTAATGTACTTTATATAATATATTA [XGTACX_site5935],9
19,TTTTTGTATTCTCCGGACTACATTATGTTGTAAATG [CACACA_negctrl_site691],9.3

row,Sequence,gcPBM binding intensity (ln)
1,TTTTCTTTCTTGTTTCGTATATTATAAAAAAAAAAG [CACACA_negctrl_site854],8.96
2,TATTTGGGTATTTTTACACACATTAAAATATATATA [CACACA_site5800],9.33
3,GTATTTTGCATAAATGCATGTAAATATATACCTACC [TGCATGCA_site957],9.1
4,ATAATTCCATAAAATAGACACACGAATGTATAATAT [CACACA_site477],9.6
5,ACATATGAATATAATACACACTTGTATTCTTAATAT [CACACA_site5085],9.45
6,CAGTTGTTAATTTGTGTGCACCAAATATTATACATA,9.4
7,TATTTGTAAAGACATGCATGGTACTTTTAAAACATA [TGCATGCA_site7],8.98
8,TGTAGATAAAATAAACGTACGTATTGATTTTTTTCA [XGTACX_site1610],8.97
9,TGGTAATACCCATACACACACACATACACATATATA [CACACA_site8877],10.1
10,TTAATATTTGTTCTGATCCTTTTATTCAACTTTTTT [CACACA_negctrl_site536],9.35
11,TATTTATAACATTGTACACACAAAGAAATAATATTA [CACACA_site7422],9.56
12,ACGTATGTATATTACACACATACATATTATTCACTA [CACACA_site204],9.54
13,ATAATATTTTATATAGTGCATTTGCTCATTATATAT [GTGCAC_site9528],9.25
14,CATATATAACATATAACACACATACTTAGTATTACA [CACACA_site5674],9.63
15,ATGATAAACATGGATACACACATATATATTACATAT [CACACA_site1576],9.68
16,ACATATATATACTATCGATTAATAAATTTGTTTTTT [CACACA_negctrl_site881],9.36
17,TGAGTATATATAAATACACACCAAATGTTAATATAT [CACACA_site5022],9.43
18,AGGTTAATCGAAATTGCATGTGACGAAAAATCAAAA [TGCATGCA_site666],9.12
19,CCCTTAAAATATAAATGTACAAAATTATTTGTATGT [XGTACX_site6164],9.09
